Out of some 360,000 compounds screened, about 25,000 (6.9%) were called active. This list was built around the results that the source calls inconclusive (neither active nor inactive); the mix of calls is not that of the screen. Calls follow the shape of the dose curve; as a rule, active = well fitted inhibition curve with a large enough effect; inconclusive = small, poorly fitted or top-dose-only effect; inactive = flat fitted curve, though single readings scatter. Where the call is inconclusive, the potency comes from a doubtful curve fit.
The compounds below were run against Luciferin 4-monooxygenase (Photinus pyralis) (UniProt P08659) (assay: qHTS profiling assay for firefly luciferase inhibitor/activator using purifed enzyme and Km concentrations of substrates (counterscreen for miR-21 project)). Conditions: purified FLuc, luminescence inhibition; series mostly up to 57.5 µM.
Sequence of UniProt P08659 (P08659 whole entry, looked up): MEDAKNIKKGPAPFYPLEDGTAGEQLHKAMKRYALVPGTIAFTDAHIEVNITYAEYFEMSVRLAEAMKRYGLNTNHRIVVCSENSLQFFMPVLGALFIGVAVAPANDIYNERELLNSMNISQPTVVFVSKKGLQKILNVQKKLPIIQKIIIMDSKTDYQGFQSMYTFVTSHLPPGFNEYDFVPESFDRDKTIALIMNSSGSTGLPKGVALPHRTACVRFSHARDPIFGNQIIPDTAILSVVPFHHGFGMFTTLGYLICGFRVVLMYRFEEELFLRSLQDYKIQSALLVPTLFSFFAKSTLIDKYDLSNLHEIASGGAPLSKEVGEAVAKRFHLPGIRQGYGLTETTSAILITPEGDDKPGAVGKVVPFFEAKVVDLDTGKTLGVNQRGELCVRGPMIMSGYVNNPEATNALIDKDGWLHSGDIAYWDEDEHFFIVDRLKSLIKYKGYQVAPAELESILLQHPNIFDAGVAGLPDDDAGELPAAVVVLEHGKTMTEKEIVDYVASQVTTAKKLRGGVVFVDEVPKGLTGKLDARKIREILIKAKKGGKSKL
Outline: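 Biochemical qHTS of compounds, final roughly 60 µM downward over six points, against 10 nM purified firefly luciferase using Km concentrations of substrates (10 uM D-luciferin, 10 uM ATP) in Tris acetate pH 7.5 buffer; luminescence output.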
Also: nearly all actives have a fitted effect of over 55% in size.
Potency is read from the fitted curve at half-maximal effect; tags tell the direction and shape of the fitted curve.

Compound	Potency
Cc1nc(-c2ccc3c(c2)OCCO3)cs1	active: 21.3 µM
CCCc1cc(C(=O)Nc2cc(Br)ccc2O)no1	inconclusive: 8.49 µM [inhibitor, partial curve, poor fit]
COC(=O)c1ccc(N2C(=O)CC(SCCN)C2=O)cc1 (centres undefined)	inconclusive: 21.3 µM [inhibitor, single point]
Cn1cc(C(=O)NS(=O)(=O)Nc2ccc(Br)cn2)c2ccccc21	inconclusive: 37.9 µM [inhibitor, partial curve, poor fit]
Nc1ccccc1-c1nnc2n1CCCCC2	inactive
COc1ccc2c(C)cc(SCC(=O)Nc3nsc(-c4ccc(C)cc4)n3)nc2c1	inactive
O=C(Nc1ccc(CN2CCCCC2)cc1)c1ccc2c(c1)OCO2	inconclusive: 30.1 µM [inhibitor, single point]
Cc1cc(Nc2ccccc2)n(C(=O)c2ccccc2)n1	active: 12 µM
Nc1ccc(-c2nc3ncccc3o2)c(O)c1	active: 12 µM
Cc1ccc(NC(=O)c2nnn(-c3ccc4c(c3)OCCO4)c2N)cc1	active: 10.7 µM
CCOC(=O)c1sc(NC(=O)Cc2ccc(C)cc2)nc1C	inactive
CC1=NN(c2ccc(Br)cc2)C(=O)/C1=C/c1cccs1	active: 7.57 µM
CSc1ncccc1C(=O)Nc1nc2ccc(F)cc2s1	active: 19 µM
COc1ccc(C(=O)N2c3ccccc3C(=O)OC2c2ccc3c(c2)OCO3)cc1 (centres undefined)	active: 19 µM
Cc1ccccc1NC(=O)CSc1nc(COc2ccccc2)nc2ccccc12	inactive
CC(Cc1cccnc1)NC(=O)c1cc(COc2ccc(F)cc2Cl)on1 (centres undefined)	active: 13.5 µM
CSc1nc2ccc(N3C(=O)C4CCCCC4C3=O)cc2s1 (centres undefined)	inconclusive: 21.3 µM [inhibitor, single point]
COC(=O)CCc1sc(NC2CCCCC2)nc1-c1ccc(OC)cc1	inconclusive: 0.757 µM [inhibitor, full curve, poor fit]
Cc1ccc(NC(=O)CCC(=O)c2cccs2)cc1F	active: 8.49 µM
CCOC(=O)c1ccc(NS(=O)(=O)c2cc(Br)cc3c2N(C(C)=O)C(C)C3)cc1 (centres undefined)	inconclusive: 33.8 µM [inhibitor, partial curve, poor fit]
CCN(CC)c1ccc(C(=O)c2ccccc2C(=O)O)c(O)c1	inconclusive: 23.9 µM [inhibitor, partial curve]
CC(=O)Nc1ccc(NC(=O)c2ccc(CSc3ccccc3)o2)cc1	inactive
Cc1cccc(Nc2ncccc2C(=O)O)c1C	active: 21.3 µM
CCOc1ccc(N2CC(C(=O)NCc3ccc(F)cc3)CC2=O)cc1 (centres undefined)	inactive
CN=C(Nc1ccc(C)c(C)c1)SC1CC(=O)N(c2ccc(OC)cc2)C1=O (centres undefined)	inconclusive: 0.0151 µM [inhibitor, partial curve, poor fit]

Compound	Potency
O=S(=O)(Nc1ccc(F)cc1F)c1ccc(Br)s1	inconclusive: 21.3 µM [inhibitor, partial curve]
S=C(Nc1ccccc1)Nc1ccc(Cl)cc1Cl	active: 26.9 µM
O=C(N/N=C/c1ccccn1)c1cc(-c2ccccc2Cl)n[nH]1	active: 23.9 µM
COc1ccc(CCNC(=O)c2cnc3sc(N4CCOCC4)nn3c2=O)cc1OC	inactive
C[C@@H]1C[C@@H]2OC(=O)[C@]3(C)[C@H]2[C@@H](OC3(C)O)[C@]2(C)C(=O)C=C[C@H]12 (some centres undefined)	inconclusive: 21.3 µM [inhibitor, partial curve, poor fit]
Cc1nc(S(=O)(=O)N(C)c2ccccc2)c(C#N)c(C)c1Cl	inactive
CCn1c2c(c(=O)n3ncc(C(=O)Nc4ccc(OC(F)(F)F)cc4)c13)CN(Cc1ccc(OC)cc1)CC2	inconclusive: 37.9 µM [inhibitor, partial curve, poor fit]
O=C(Nc1cc(-c2nc3cc(Cl)ccc3o2)ccc1Cl)c1cccc2ccccc12	inconclusive: 21.3 µM [inhibitor, partial curve, poor fit]
CC(C)(C)c1ccc(OCc2ccc(C(=O)Nc3cccnc3)o2)cc1	active: 15.1 µM
COc1ccc(C(=O)NCCC2=CCCCC2)cc1OC1CCN(C(C)C)CC1	inconclusive: 37.9 µM [inhibitor, partial curve, poor fit]
CCOc1ccc(C(=O)NC(=S)Nc2ccccn2)cc1[N+](=O)[O-]	inactive
N#C/C(=C\c1cccc(Oc2ccccc2)c1)C(=O)N1CCOCC1	inconclusive: 37.9 µM [inhibitor, single point]
O=C1CCC(=O)O1	inactive
O=C1c2ccc([N+](=O)[O-])cc2NC(c2ccco2)N1/N=C/c1ccco1 (centres undefined)	inconclusive: 37.9 µM [inhibitor, single point]
Cc1nnc(Sc2cc(NCCO)c([N+](=O)[O-])c3nonc23)s1	inconclusive: 19 µM [inhibitor, partial curve, poor fit]
CNC(=O)c1ccc(NC(=O)Nc2ccccc2)cc1	inconclusive: 30.1 µM [inhibitor, single point]
COc1ccc(NC(=O)NC23CC4CC(CC(C4)C2)C3)cc1OC	inconclusive: 26.9 µM [inhibitor, partial curve, poor fit]
Cn1c(CO)cnc1SCC(=O)c1ccc(F)cc1	inconclusive: 21.3 µM [inhibitor, single point]
O=C(COc1ccc([N+](=O)[O-])cc1)NNC(=S)NC(=O)c1ccc(Br)cc1	inconclusive: 30.1 µM [inhibitor, single point]
O=c1cc(C(F)(F)F)[nH]c2ccc(OC(F)(F)F)cc12	active: 21.3 µM
CCc1ccc(NC(=O)c2cc(S(=O)(=O)N3CCCCC3)c[nH]2)cc1	inconclusive: 8.49 µM [inhibitor, partial curve]
CC(C)CCN1CCN(CCCn2cccn2)CC1CCO (centres undefined)	inactive
CCc1cc(=O)oc2cc3occ(-c4ccc(OC)c(F)c4)c3cc12	inactive
COc1cc(/C=C(/NC(C)=O)C(=O)O)cc(Cl)c1OCc1ccc(Br)cc1	inconclusive: 21.3 µM [inhibitor, single point]

Source: PubChem BioAssay AID588342 (National Center for Advancing Translational Sciences (NCATS), 2011)
